# Test results reported in article PMC12820563.
# The other results are listed elsewhere or left out. The list includes weakly bound sequences.
# Target: T1, MBP-FoxP3dN (UniProt Q99JB6)
# T1 sequence: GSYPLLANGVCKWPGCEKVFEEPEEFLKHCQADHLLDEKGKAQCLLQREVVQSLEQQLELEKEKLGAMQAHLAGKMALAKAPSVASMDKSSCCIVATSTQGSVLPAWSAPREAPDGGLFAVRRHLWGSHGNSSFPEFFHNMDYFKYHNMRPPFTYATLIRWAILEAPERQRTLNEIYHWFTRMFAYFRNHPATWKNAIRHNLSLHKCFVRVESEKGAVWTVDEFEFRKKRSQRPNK
# Experiment: PD-seq (MBP pull-down with sequencing)
# Settings: 20 mM Tris-HCl pH 7.5, 100 mM NaCl, 1.5 mM MgCl2, 0.4 uM protein, 0.1 uM dsDNA library, 30 min, room temperature, amylose pull-down; high values mean tight binding; double strand, one strand shown
row,Sequence,binding signal (RPM ratio (pull-down/input))
1,GATGATTGTTCTCCCAGCTGATGAATTTAGGAGCTCGAGTAAACAAATTTTCCTAATCTTTCTGTTCAAGCGCCATCTAC,0.302
2,GATGATTGTTCTCCCAGCTGATGAATTACCAGAATCGAGTAAACAAATTTTCCTAATCTTTCTGTTCAAGCGCCATCTAC,0.217
3,GATGATTGTTCTCCCAGCTGATGAATTACTCAGATCGAGTAAACAAATTTTCCTAATCTTTCTGTTCAAGCGCCATCTAC,0.213
4,GATGATTGTTCTCCCAGCTGATGAATTCTCCGTTTCGAGTAAACAAATTTTCCTAATCTTTCTGTTCAAGCGCCATCTAC,0.24
5,GATGATTGTTCTCCCAGCTGATGAATTAGGTGCATCGAGTAAACAAATTTTCCTAATCTTTCTGTTCAAGCGCCATCTAC,1.66
6,GATGATTGTTCTCCCAGCTGATGAATTCACGCGATCGAGTAAACAAATTTTCCTAATCTTTCTGTTCAAGCGCCATCTAC,0.823
7,GATGATTGTTCTCCCAGCTGATGAATTTGAAGTATCGAGTAAACAAATTTTCCTAATCTTTCTGTTCAAGCGCCATCTAC,0.616
8,GATGATTGTTCTCCCAGCTGATGAATTGTAGCTCTCGAGTAAACAAATTTTCCTAATCTTTCTGTTCAAGCGCCATCTAC,0.791
9,GATGATTGTTCTCCCAGCTGATGAATTCAAGTTGTCGAGTAAACAAATTTTCCTAATCTTTCTGTTCAAGCGCCATCTAC,0.668
10,GATGATTGTTCTCCCAGCTGATGAATTGATTGCGTCGAGTAAACAAATTTTCCTAATCTTTCTGTTCAAGCGCCATCTAC,1.43
11,GATGATTGTTCTCCCAGCTGATGAATTAGCTATTTCGAGTAAACAAATTTTCCTAATCTTTCTGTTCAAGCGCCATCTAC,1.98
12,GATGATTGTTCTCCCAGCTGATGAATTGAGGGTTTCGAGTAAACAAATTTTCCTAATCTTTCTGTTCAAGCGCCATCTAC,0.656
13,GATGATTGTTCTCCCAGCTGATGAATTGAATAAATCGAGTAAACAAATTTTCCTAATCTTTCTGTTCAAGCGCCATCTAC,0.242
14,GATGATTGTTCTCCCAGCTGATGAATTAACCATTTCGAGTAAACAAATTTTCCTAATCTTTCTGTTCAAGCGCCATCTAC,0.352
15,GATGATTGTTCTCCCAGCTGATGAATTAAATGCGTCGAGTAAACAAATTTTCCTAATCTTTCTGTTCAAGCGCCATCTAC,1.47
16,GATGATTGTTCTCCCAGCTGATGAATTGCTGGAGTCGAGTAAACAAATTTTCCTAATCTTTCTGTTCAAGCGCCATCTAC,0.345
17,GATGATTGTTCTCCCAGCTGATGAATTAACATTTTCGAGTAAACAAATTTTCCTAATCTTTCTGTTCAAGCGCCATCTAC,0.441
18,GATGATTGTTCTCCCAGCTGATGAATTACGGATGTCGAGTAAACAAATTTTCCTAATCTTTCTGTTCAAGCGCCATCTAC,0.504
19,GATGATTGTTCTCCCAGCTGATGAATTGAGGATTTCGAGTAAACAAATTTTCCTAATCTTTCTGTTCAAGCGCCATCTAC,0.292
20,GATGATTGTTCTCCCAGCTGATGAATTCTCAGAATCGAGTAAACAAATTTTCCTAATCTTTCTGTTCAAGCGCCATCTAC,0.166
21,GATGATTGTTCTCCCAGCTGATGAATTACCGGAGTCGAGTAAACAAATTTTCCTAATCTTTCTGTTCAAGCGCCATCTAC,0.208

row,Sequence,binding signal (RPM ratio (pull-down/input))
1,GATGATTGTTCTCCCAGCTGATGAATTCTCGTAGTCGAGTAAACAAATTTTCCTAATCTTTCTGTTCAAGCGCCATCTAC,0.3
2,GATGATTGTTCTCCCAGCTGATGAATTGCCTATATCGAGTAAACAAATTTTCCTAATCTTTCTGTTCAAGCGCCATCTAC,0.625
3,GATGATTGTTCTCCCAGCTGATGAATTCTGTGGCTCGAGTAAACAAATTTTCCTAATCTTTCTGTTCAAGCGCCATCTAC,1.13
4,GATGATTGTTCTCCCAGCTGATGAATTGAGCTGATCGAGTAAACAAATTTTCCTAATCTTTCTGTTCAAGCGCCATCTAC,0.446
5,GATGATTGTTCTCCCAGCTGATGAATTGAGGTAGTCGAGTAAACAAATTTTCCTAATCTTTCTGTTCAAGCGCCATCTAC,0.409
6,GATGATTGTTCTCCCAGCTGATGAATTTGGGCGATCGAGTAAACAAATTTTCCTAATCTTTCTGTTCAAGCGCCATCTAC,0.578
7,GATGATTGTTCTCCCAGCTGATGAATTTATTATCTCGAGTAAACAAATTTTCCTAATCTTTCTGTTCAAGCGCCATCTAC,5.36
8,GATGATTGTTCTCCCAGCTGATGAATTTAGACGATCGAGTAAACAAATTTTCCTAATCTTTCTGTTCAAGCGCCATCTAC,0.303
9,GATGATTGTTCTCCCAGCTGATGAATTTCGCTTCTCGAGTAAACAAATTTTCCTAATCTTTCTGTTCAAGCGCCATCTAC,1.88
10,GATGATTGTTCTCCCAGCTGATGAATTACCTATGTCGAGTAAACAAATTTTCCTAATCTTTCTGTTCAAGCGCCATCTAC,0.384
11,GATGATTGTTCTCCCAGCTGATGAATTAAATCGGTCGAGTAAACAAATTTTCCTAATCTTTCTGTTCAAGCGCCATCTAC,0.215
12,GATGATTGTTCTCCCAGCTGATGAATTCTAAACGTCGAGTAAACAAATTTTCCTAATCTTTCTGTTCAAGCGCCATCTAC,0.38
13,GATGATTGTTCTCCCAGCTGATGAATTCCATTCGTCGAGTAAACAAATTTTCCTAATCTTTCTGTTCAAGCGCCATCTAC,0.494
14,GATGATTGTTCTCCCAGCTGATGAATTCTAGTATTCGAGTAAACAAATTTTCCTAATCTTTCTGTTCAAGCGCCATCTAC,1.14
15,GATGATTGTTCTCCCAGCTGATGAATTCAGACCCTCGAGTAAACAAATTTTCCTAATCTTTCTGTTCAAGCGCCATCTAC,0.319
16,GATGATTGTTCTCCCAGCTGATGAATTCTAATTATCGAGTAAACAAATTTTCCTAATCTTTCTGTTCAAGCGCCATCTAC,1.8
17,GATGATTGTTCTCCCAGCTGATGAATTAACATCGTCGAGTAAACAAATTTTCCTAATCTTTCTGTTCAAGCGCCATCTAC,0.591
18,GATGATTGTTCTCCCAGCTGATGAATTTAATACCTCGAGTAAACAAATTTTCCTAATCTTTCTGTTCAAGCGCCATCTAC,0.637
19,GATGATTGTTCTCCCAGCTGATGAATTGCTTGGTTCGAGTAAACAAATTTTCCTAATCTTTCTGTTCAAGCGCCATCTAC,0.956
20,GATGATTGTTCTCCCAGCTGATGAATTCGTAAGCTCGAGTAAACAAATTTTCCTAATCTTTCTGTTCAAGCGCCATCTAC,0.435
21,GATGATTGTTCTCCCAGCTGATGAATTAGATTCCTCGAGTAAACAAATTTTCCTAATCTTTCTGTTCAAGCGCCATCTAC,0.8

row,Sequence,binding signal (RPM ratio (pull-down/input))
1,GATGATTGTTCTCCCAGCTGATGAATTTTCAAGATCGAGTAAACAAATTTTCCTAATCTTTCTGTTCAAGCGCCATCTAC,0.17
2,GATGATTGTTCTCCCAGCTGATGAATTCTCCACTTCGAGTAAACAAATTTTCCTAATCTTTCTGTTCAAGCGCCATCTAC,0.248
3,GATGATTGTTCTCCCAGCTGATGAATTCCACGATTCGAGTAAACAAATTTTCCTAATCTTTCTGTTCAAGCGCCATCTAC,0.302
4,GATGATTGTTCTCCCAGCTGATGAATTCTAAGGATCGAGTAAACAAATTTTCCTAATCTTTCTGTTCAAGCGCCATCTAC,0.231
5,GATGATTGTTCTCCCAGCTGATGAATTGCGTTTGTCGAGTAAACAAATTTTCCTAATCTTTCTGTTCAAGCGCCATCTAC,3.57
6,GATGATTGTTCTCCCAGCTGATGAATTGGGCGACTCGAGTAAACAAATTTTCCTAATCTTTCTGTTCAAGCGCCATCTAC,1.21
7,GATGATTGTTCTCCCAGCTGATGAATTTCGCGCATCGAGTAAACAAATTTTCCTAATCTTTCTGTTCAAGCGCCATCTAC,1.42
8,GATGATTGTTCTCCCAGCTGATGAATTCACGAGGTCGAGTAAACAAATTTTCCTAATCTTTCTGTTCAAGCGCCATCTAC,0.211
9,GATGATTGTTCTCCCAGCTGATGAATTTCAGTTATCGAGTAAACAAATTTTCCTAATCTTTCTGTTCAAGCGCCATCTAC,0.75
10,GATGATTGTTCTCCCAGCTGATGAATTTGGTAAATCGAGTAAACAAATTTTCCTAATCTTTCTGTTCAAGCGCCATCTAC,0.381
11,GATGATTGTTCTCCCAGCTGATGAATTTTACAGATCGAGTAAACAAATTTTCCTAATCTTTCTGTTCAAGCGCCATCTAC,0.189
12,GATGATTGTTCTCCCAGCTGATGAATTGAGGATATCGAGTAAACAAATTTTCCTAATCTTTCTGTTCAAGCGCCATCTAC,0.365
13,GATGATTGTTCTCCCAGCTGATGAATTTACCCAGTCGAGTAAACAAATTTTCCTAATCTTTCTGTTCAAGCGCCATCTAC,0.258
14,GATGATTGTTCTCCCAGCTGATGAATTGGGCAGTTCGAGTAAACAAATTTTCCTAATCTTTCTGTTCAAGCGCCATCTAC,0.742
15,GATGATTGTTCTCCCAGCTGATGAATTCAACTGATCGAGTAAACAAATTTTCCTAATCTTTCTGTTCAAGCGCCATCTAC,0.332
16,GATGATTGTTCTCCCAGCTGATGAATTGCCCTCTTCGAGTAAACAAATTTTCCTAATCTTTCTGTTCAAGCGCCATCTAC,0.507
17,GATGATTGTTCTCCCAGCTGATGAATTACAGCCTTCGAGTAAACAAATTTTCCTAATCTTTCTGTTCAAGCGCCATCTAC,1.66
18,GATGATTGTTCTCCCAGCTGATGAATTCGTAATGTCGAGTAAACAAATTTTCCTAATCTTTCTGTTCAAGCGCCATCTAC,0.723
19,GATGATTGTTCTCCCAGCTGATGAATTTGCACGGTCGAGTAAACAAATTTTCCTAATCTTTCTGTTCAAGCGCCATCTAC,0.508
20,GATGATTGTTCTCCCAGCTGATGAATTTGTGCCATCGAGTAAACAAATTTTCCTAATCTTTCTGTTCAAGCGCCATCTAC,3.78
21,GATGATTGTTCTCCCAGCTGATGAATTTGGGCCATCGAGTAAACAAATTTTCCTAATCTTTCTGTTCAAGCGCCATCTAC,1.22
